Experimental data taken from publication PMC4654539.
These are yes or no findings as the source states them, for the method shown. For part of these data: In cells and extracts the contact can be indirect. Some binding calls cover weakened binding; strength is not graded here. For part of these data: Sequences can lack the tags named with a protein. Blank lines part the entries; values can stand above or below the molecule they belong to.

By UniProt entry, the sequences of proteins in these tests, tags left out. Where a name states a change or a piece, a line headed by the entry shows the natural chain unless it says otherwise.
UniProt P00167: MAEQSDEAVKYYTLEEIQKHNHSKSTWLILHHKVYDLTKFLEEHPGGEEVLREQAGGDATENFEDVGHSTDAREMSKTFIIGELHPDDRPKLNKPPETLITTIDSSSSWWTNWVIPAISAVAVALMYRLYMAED

Key:
[1] = biological target: T1, recombinant cytochrome P450c17, purified (human) (UniProt P05093); test: d.c. and Fourier transformed a.c. cyclic voltammetry; cyt b5 adsorbed on a carbon nanotube electrode pre-modified with P450c17; deoxygenated 0.20 M NaCl + 0.02 M (K2HPO4+KH2PO4), pH 7.0; 23 ± 1°C; both purified
T1 sequence: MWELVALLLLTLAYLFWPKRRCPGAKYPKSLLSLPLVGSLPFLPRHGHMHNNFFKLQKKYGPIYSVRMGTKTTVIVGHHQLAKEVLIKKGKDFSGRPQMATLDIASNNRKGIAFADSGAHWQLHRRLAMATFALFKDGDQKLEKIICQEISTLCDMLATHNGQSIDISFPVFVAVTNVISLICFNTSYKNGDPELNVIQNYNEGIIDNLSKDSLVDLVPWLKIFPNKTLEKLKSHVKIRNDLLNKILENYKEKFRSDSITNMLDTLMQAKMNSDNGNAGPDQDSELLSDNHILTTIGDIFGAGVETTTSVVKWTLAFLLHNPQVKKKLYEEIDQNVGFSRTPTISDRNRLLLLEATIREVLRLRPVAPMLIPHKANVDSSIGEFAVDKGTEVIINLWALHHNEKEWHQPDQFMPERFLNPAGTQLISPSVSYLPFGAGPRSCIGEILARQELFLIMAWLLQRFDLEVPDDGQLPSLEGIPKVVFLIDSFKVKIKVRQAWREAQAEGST

[2] = biological target: T1, recombinant cytochrome P450c17, purified (human); test: quartz crystal microbalance; mixtures of 20 nM P450c17 + 20 nM CPR + 20 or 100 nM cyt b5 deposited on a DMPC-cholesterol membrane on a Au-coated quartz crystal; 295 K; 0.10 M NaCl + 0.02 M (K2HPO4+KH2PO4), pH 6.9; both purified
[3] = biological target: T2, human cytochrome P450c17 fused to a fluorescent protein at the C-terminus (human) (UniProt P05093); test: FRET or BRET; living HEK293 or H295 cells co-transfected with CFP and YFP fusion constructs; FRET ratio from the enhanced acceptor emission, a ratio >1.0 indicates close association
T2 sequence: T1 sequence

Molecule: E48G/E49G human cytochrome b5 double mutant, purified (from UniProt P00167 1-134)
binding [1]: no binding
binding [2]: no binding (tested: 20 nM and 100 nM E48G/E49G cyt b5)

B1: cytochrome P450 aromatase fused to eCFP (enzyme, UniProt P11511 1-503)
chain: MVLEMLNPIHYNITSIVPEAMPAATMPVLLLTGLFLLVWNYEGTSSIPGPGYCMGIGPLISHGRFLWMGIGSACNYYNRVYGEFMRVWISGEETLIISKSSSMFHIMKHNHYSSRFGSKLGLQCIGMHEKGIIFNNNPELWKTTRPFFMKALSGPGLVRMVTVCAESLKTHLDRLEEVTNESGYVDVLTLLRRVMLDTSNTLFLRIPLDESAIVVKIQGYFDAWQALLIKPDIFFKISWLYKKYEKSVKDLKDAIEVLIAEKRRRISTEEKLEECMDFATELILAEKRGDLTRENVNQCILEMLIAAPDTMSVSLFFMLFLIAKHPNVEEAIIKEIQTVIGERDIKIDDIQKLKVMENFIYESMRYQPVVDLVMRKALEDDVIDGYPVKKGTNIILNIGRMHRLEFFPKPNEFTLENFAKNVPYRYFQPFGFGPRGCAGKYIAMVMMKAILVTLLRRFHVKTLQGQCVESIQKIHDLSLHPDETKNMLEMIFTPRNSDRCLEH
binding [3]: no binding

Now from value to molecule:

binding [1]: binds
binding [2]: binds
Molecule: wild type human cytochrome b5, purified (from UniProt P00167 1-134)

binding [3]: binds
Molecule: human cytochrome b5 fused to a fluorescent protein (from UniProt P00167 1-134)
